Measured values from PMC11494340, “High-throughput screening for small-molecule stabilizers of misfolded glucocerebrosidase in Gaucher disease and Parkinson’s disease” (Proceedings of the National Academy of Sciences of the …, 2024).
Like-named read-outs stand apart in the source and are kept apart here.

Key:
[1] = tested on: GluSph accumulation in HiBiT-GCase-L444P H4 cells; test: Glucosylsphingosine (GluSph) levels by SFC-MS/MS; assay type: cell-based, human
[2] = target: T1, GCase in spots of LAMP1, HiBiT-GCase-L444P H4 cells (Homo sapiens, UniProt P04062, L483P); test: hGCase-1/23 immunofluorescence assay of GCase translocation to the lysosome; assay type: cell-based; conditions: ~34 h
T1 construct: expressed in transfected cells; host or cells: GBA1-KO H4 human neuroglioma cells, one copy at the CLYBL safe-harbor locus, CAG promoter
T1 sequence (P04062 40-536 L483P): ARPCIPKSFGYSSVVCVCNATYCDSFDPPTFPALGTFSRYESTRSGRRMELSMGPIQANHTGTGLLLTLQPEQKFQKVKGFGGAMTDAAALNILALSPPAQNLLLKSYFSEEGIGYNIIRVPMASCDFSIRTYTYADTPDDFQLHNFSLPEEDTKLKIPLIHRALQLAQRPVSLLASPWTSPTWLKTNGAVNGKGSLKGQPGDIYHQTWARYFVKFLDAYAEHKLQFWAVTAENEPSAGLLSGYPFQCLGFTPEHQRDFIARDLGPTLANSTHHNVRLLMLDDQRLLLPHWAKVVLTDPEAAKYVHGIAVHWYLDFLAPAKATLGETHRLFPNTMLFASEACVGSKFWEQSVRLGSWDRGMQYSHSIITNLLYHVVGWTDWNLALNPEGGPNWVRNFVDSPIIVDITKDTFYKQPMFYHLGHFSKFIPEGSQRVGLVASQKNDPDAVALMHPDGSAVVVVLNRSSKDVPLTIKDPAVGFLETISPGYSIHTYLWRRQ

[3] = target: T2, GCase in HiBiT-GCase-L444P H4 cells (Homo sapiens, UniProt P04062, L483P); test: GCase activity assay (4-MUG) in lysates of compound-treated cells; assay type: cell-based
T2 construct: expressed in transfected cells; host or cells: GBA1-KO H4 human neuroglioma cells, one copy at the CLYBL safe-harbor locus, CAG promoter
T2 sequence (P04062 40-536 L483P): T1 sequence (P04062 40-536 L483P)

[4] = target: T3, GCase-L444P lysosomal activity in HiBiT-GCase-L444P H4 cells (Homo sapiens, UniProt P04062, L483P); test: LysoFix-GBA high-content lysosomal GCase activity assay
T3 sequence (P04062 40-536 L483P): T1 sequence (P04062 40-536 L483P)

HiBiT-GCase-L444P [5] = target: T4, HiBiT-GCase-L444P (Homo sapiens, UniProt P04062, L483P); design: AUC: unit not given beside the values; conditions: for EC50: n = 3; for CC-v2: qHTS curve class
T4 sequence (P04062 40-536 L483P): T1 sequence (P04062 40-536 L483P)

[6] = tested on: HiBiT-GCase-L444P H4 cells; test: CellTiter-Glo cytotoxicity testing
HiBiT-GCase-L444P [7] = target: T4, HiBiT-GCase-L444P; test: cell-based
[8] = normalized to DMSO, 100% efficacy reflects a doubling of GCase levels
[9] = 24 h compound incubation, LysoFix-GBA 5 μM
[10] = follow-up screen, 24 h, relative to DMSO control

SMILES	AC50 (HiBiT-GCase-L444P [5]; follow-up screen, 24 h) [nM]	AUC (HiBiT-GCase-L444P [5]; follow-up screen, 24 h)	EC50 (HiBiT-GCase-L444P [5]; follow-up screen, 24 h) [nM]	Efficacy (HiBiT-GCase-L444P [5]; [8]) [%]	CC-v2 (HiBiT-GCase-L444P [5]; follow-up screen, 24 h)	LysoFix-GBA response (GCase-L444P lysosomal activity) [4, 9]	Efficacy (HiBiT-GCase-L444P [5]; [10])	other results
CC[C@H](O)[C@@H](C)[C@H]1O[C@@H]1C[C@H](C)/C=C/C=C(\C)[C@H]1OC(=O)C[C@H](O)CC[C@@](C)(O)[C@@H](OC(C)=O)/C=C/[C@@H]1C [NCGC00347424-08, Pladienolide B]	–	1014.3	–	266.5	1.1	two- to fourfold	267	Effect on GluSph accumulation ([1]; 100 nM, 48 h): a reduction in GluSph levels was observed; Increase in lysosomal GCase staining relative to DMSO ([2]; 100 nM): threefold increase; Cytotoxicity ([6]; listed as Pladienolide B): strong cytotoxicity; Cytotoxicity ([6]; listed as pladienolide B): severe cytotoxic effect; activity at 0.1 µM ([3]; read-out: GCase activity (%) HiBiT-L444P): 5.9%; AC50 (HiBiT-GCase-L444P [7]): 9.43 nM; EC50 (HiBiT-GCase-L444P [7]): 9.4 nM
N#Cc1cn([C@@H]2O[C@H](CO)[C@@H](O)[C@H]2O)c2ncnc(N)c12 [NCGC00387257-01, Toyocamycin]	2700	14.5	2660	139.6	1.1	–	140	Cytotoxicity [6]: cytotoxicity

Further lines, with some results ahead:

AC50 (HiBiT-GCase-L444P [5]; follow-up screen, 24 h) [nM]	AUC (HiBiT-GCase-L444P [5]; follow-up screen, 24 h)	EC50 (HiBiT-GCase-L444P [5]; follow-up screen, 24 h) [nM]	Efficacy (HiBiT-GCase-L444P [5]; [8]) [%]	CC-v2 (HiBiT-GCase-L444P [5]; follow-up screen, 24 h)	LysoFix-GBA response (GCase-L444P lysosomal activity) [4, 9]	SMILES	Efficacy (HiBiT-GCase-L444P [5]; [10])	other results
11200	333.5	11200	140.2	1.1	–	O=C(COc1ccccc1C(=O)Nc1ccc(I)cc1)Nc1ccc(I)cc1 [NCGC326, N-(4-iodophenyl)-2-(2-((4-iodophenyl)amino)-2-oxoethoxy)benzamide]	–	Effect on GluSph accumulation ([1]; 10 μM, 3 d): effective in reversing GluSph accumulation; Effect on GluSph accumulation ([1]; 25 μM, 3 d): completely reversed lipid accumulation; Increase in lysosomal GCase staining relative to DMSO ([2]; 25 μM): 1.45 fold; activity at 25 µM ([3]; 25 μM, 3 d, normalized to HiBiT-WT+DMSO): 5.8%; LysoFix-GBA response (GCase-L444P lysosomal activity) ([4]; 72 h compound incubation): up to twofold; Increased efficacy relative to NCGC607 (HiBiT-GCase-L444P [5]; 140% vs. 54%): ~ 3 fold
133	919.1	133	347.1	1.1	two- to fourfold	Cc1[nH]c2ccccc2c1CCNCc1ccc(/C=C/C(=O)NO)cc1 [NCGC00263117-09, Panobinostat]	–	Increase in lysosomal GCase staining relative to DMSO ([2]; 10 μM): 1.6 fold
11.9	181.8	11.9	52.1	1.2	moderate efficacy	O=C(COc1ccc(Cl)cc1)N[C@H]1CC[C@H](NC(=O)COc2ccc(Cl)cc2)CC1 [NCGC00384174-12, trans-ISRIB]	–	Effect on GluSph accumulation ([1]; 1.25 μM, 3 d): did not show an effect; activity at 1.25 µM ([3]; 1.25 μM, 3 d, normalized to HiBiT-WT+DMSO): 3.2%
